Measurements from the supplement of paper PMC11417369.
± gives the standard deviation of the averaged measurements. This is one part of the list.

system: PfAP2-LT AP2 domain (GST-tagged); assay: gcPBM binding intensity (ln(normalized median fluorescence intensity)); higher = stronger DNA binding
Summary of the method: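 The binding buffer was 1× PBS containing 1% milk, 0.2 mg/ml BSA, 0.5% salmon testes DNA and 0.03% Triton X-100. In it, GST-tagged P. falciparum DNA-binding domains expressed in E. coli were applied for 1 h to an Agilent 4 × 180k array of primer-extended double-stranded 36-bp intergenic genomic probes plus negative controls. Binding intensity, read with Alexa488 anti-GST antibody and a 488 nm scan, is the highest Masliner-normalised natural-log median intensity across replicate spots of either probe orientation.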

Sequence | gcPBM binding intensity (ln)
GATTCCTTTAACCCTGCACACATACATACATTTATA [CACACA_site9308] | 9.34 ± 0.35
TAATAATATAATAATACACACTCATTATATATATAA [CACACA_site6045] | 8.71 ± 0.43
TATATTTCTTATTACATACACACATATACATATATG [CACACA_site3202] | 9.14 ± 0.45
CCATTCAAATTTCGCACACACATACAAAAAAAAAAA [CACACA_site3093] | 9.39 ± 0.42
TATAAATGATTAATTTGTACATATTTTACTTAATTG [XGTACX_site5271] | 8.56 ± 0.51
TTGATGATATCATTTTGTACTTATACGTATTTAAAA [XGTACX_site148] | 8.59 ± 0.44
TAAATAAATAAATATATATATATATATATATATATA [XGTACX_negctrl_site70] | 9.28 ± 0.53
ACAAAAAAAAAAAAAATACACACACATAAAAAAAAA [TGCATGCA_negctrl_site333] | 9.32 ± 0.35
ACAAAATATTTTTCTTCACACATCCATTCAACATTT [CACACA_site5886] | 8.89 ± 0.43
AATCAAAACATTAAAAAGAAAAAATATATATATATA [CACACA_negctrl_site366] | 9.13 ± 0.13
TATATATATATATATATTAATAATTAATATAAAAGA [XGTACX_negctrl_site32] | 8.72 ± 0.38
TACATATTTTTCTTTTCACACATGGAAAAAAAAGGT [CACACA_site5146] | 8.62 ± 0.45
ATATATATATATATATATATATATATATATAAGTGG [XGTACX_negctrl_site90] | 9.78 ± 0.19
TATTAATTCATTTTTTTTTTTTTTTTTTTTTTTTTT [CACACA_negctrl_site1215] | 8.47 ± 0.38
AATATATTTATTATAACACACACATATATATATTAT [CACACA_site8264] | 9.29 ± 0.42
TATTTTTTTTTTCACTGTACATACAACAACAAATAT [XGTACX_site8835] | 8.52 ± 0.52
CCCTTAATTTAAAACACACAAACAAATAAGTTAGTT [CACACA_site3793] | 8.78 ± 0.36
GATTTAATAGATACGAGTACAGAAATTGTATACATA [XGTACX_site7563] | 8.82 ± 0.4
ACACAAAAAATTAAGTGTACTCATCAAGAAAAAAAA [XGTACX_site3456] | 8.84 ± 0.53
TATATATTTTTTTCATGTACATATAAATTAATTAAA [XGTACX_site8680] | 8.31 ± 0.35
ATAAAATACCCTGATCTATTACATATTATATTCTGC [GTGCAC_negctrl_site311] | 8.82 ± 0.47
TTATATGTTTTGTGTACACAATTTATTAAATTAATA [CACACA_site5645] | 8.76 ± 0.45
ATAGGAAAAAGTATTGGTACACATACATATACGTTA [XGTACX_site5819] | 8.86 ± 0.4

Sequence | gcPBM binding intensity (ln)
CAAACAATTAAACAAACACACATATACATGTATATA [CACACA_site2060] | 9.06 ± 0.45
AAAATAAGCCATATACGTACATACATATATAAATAT [XGTACX_site4197] | 8.94 ± 0.34
TAATTACACTTTAAAAGTACATATATAATAACATTA [XGTACX_site379] | 8.49 ± 0.4
TTTTTTATGTTCAATTGTACATATACATATATATAT [XGTACX_site6013] | 9.12 ± 0.52
TTCATATTTCATATATGTACTTATGTTCAATATAGT [XGTACX_site3811] | 8.78 ± 0.48
TTTTTTGACATTCCTTTTAATAATTAACGAAAGGCA [GTGCAC_negctrl_site377] | 8.22 ± 0.33
CTTAAAATGATAATATGTACACATAAATAATATATA [XGTACX_site8330] | 8.79 ± 0.38
TAAGTTTGTCAATCAACACACACCTATTTATTATAT [CACACA_site3919] | 9.11 ± 0.35
CACTTTAATTTATGCACACATATGGAACAACAGCCA [CACACA_site994] | 9.05 ± 0.41
TATAATCAATGCCAAAGTACATATTAATATATTTAT [XGTACX_site4558] | 8.68 ± 0.47
AATATATCGCATAGTTGTACAGAATTTTTACTTTTA [XGTACX_site8192] | 8.74 ± 0.37
ATTGAAAAATAAAAATGTACACATGTAGCATACCAT [XGTACX_site3275] | 8.97 ± 0.49
TATATAATATTACGTTGTACACTTTAATCTCCCTTC [XGTACX_site5577] | 8.95 ± 0.57
ACCATTTGAAAATTCACACACTTTATTTTGTTATAT [CACACA_site5976] | 9.18 ± 0.39
ACTAATATGCAATATTGTACATATATATAGAAATAT [XGTACX_site5273] | 8.81 ± 0.52
AAATGTATACACATGGTGCGTAATATATTATATATA [GTGCAC_site9877] | 8.97 ± 0.42
CTACCAAATCTATAGACACACATATATATATATATT [CACACA_site2486] | 9.32 ± 0.24
GAACTAATAATGAAAAGTACACATACACATATATAT [XGTACX_site6789] | 9.05 ± 0.52
AAAGATATTTTTATCTCACACATATAATATATATAT [CACACA_site5478] | 8.79 ± 0.38
TAAAATTTAAGTTATACACACTTAAGTAACATCATC [CACACA_site6395] | 8.71 ± 0.43
TATAGAAAATTTATATGTACATATATATATATATAT [XGTACX_site4451] | 9.29 ± 0.33
TATTTACAGACATGCGCACACATAAATAAATAATAG [CACACA_site2411] | 9.3 ± 0.43
GTTACTGCATACATAACACACATATTCAAAACACAT [CACACA_site3502] | 9.2 ± 0.25

Sequence | gcPBM binding intensity (ln)
GCATATGTATATAATGTGCACATGGATTATATAAAA | 9.16 ± 0.52
TTTATATAATAGTTATGTACTTAAACGAAAGATACA [XGTACX_site8495] | 8.39 ± 0.41
AAATACAAGGGACATGCATACCACTATTTTTTAAAT [TGCATGCA_site588] | 8.8 ± 0.46
ATAACATACATAACAACACACAATATTTATCTGTAT [CACACA_site4279] | 9.44 ± 0.29
TTCTTCTGTTTTATTACACACCATTTTGTGTCTACA [CACACA_site8643] | 9.62 ± 0.71
CTCTATATATTATTATGTACTAAATGTATGTATGTA [XGTACX_site7151] | 8.86 ± 0.41
TAACACACTAAGAAAAGTACTGATTAATATAATTTT [XGTACX_site5536] | 8.76 ± 0.49
ATGAATGAATAAAGAAGTACGGAAATATTAACAAAA [XGTACX_site4695] | 8.87 ± 0.48
AAAACACAATTTATTACACACATATATTATATATTA [CACACA_site1420] | 8.9 ± 0.4
TATGATTTTTATATATGTACGTATGGTGTTTTACAA [XGTACX_site6100] | 8.76 ± 0.41
TACGCCTATAACGGCTGTACACCTTACTTTTTTTAA [XGTACX_site6818] | 8.78 ± 0.37
AATAAATTTCAAAATTGTACTCATTTCCTTTCCCAA [XGTACX_site5887] | 8.39 ± 0.51
TGTGAAATAAAATTTGTACACACATATATATATATA [CACACA_site8093] | 9.45 ± 0.18
ATATATAATTCCCAAGTGCATTTATTTTAATTATTA | 8.59 ± 0.43
TTCATTCAAATCCAAGCATGCTTTATTAAAAAATTA [TGCATGCA_site567] | 8.27 ± 0.42
ATAAAATTTTATATGGGTACATAATATAATATATAT [XGTACX_site8160] | 8.67 ± 0.47
ATATATATATATATATGTACACATATATTTCTTTTC [XGTACX_site3443] | 9.745 ± 0.0071
AAATGATATAAATTATAAAATGGATTTTTTCCATTG [CACACA_negctrl_site420] | 8.3 ± 0.42
TTTAAAAATTAATTCTGTACACATTTTTATTATATT [XGTACX_site4212] | 8.8 ± 0.47
TTTATGAAATGTTGCACACAAAAAACAACATGTTTT [CACACA_site1440] | 8.87 ± 0.38
ATTCCTGGACCGTTCATGCACTTGCAGAACGTCCAT | 8.84 ± 0.4
AAAAAAAAAAAAAGTGCACACGATTTAAGGCCTATA [CACACA_site2823] | 8.98 ± 0.4
CATATTATTTAAACATGTACTCACATATAAATATAA [XGTACX_site6096] | 8.59 ± 0.53

Sequence | gcPBM binding intensity (ln)
ATGAGTATACTAAGAACACACAAGTTACTTGGTGTT [CACACA_site4981] | 9.03 ± 0.49
TATAACAAGTAATGTTGTACATTATATTATGTAATA [XGTACX_site2769] | 8.71 ± 0.49
TTTTTTATTATTATGTGTACGAATATGTGCATATAA [XGTACX_site1364] | 8.69 ± 0.47
TAAAAAAAAAAAATGTGTACATATTATATATATCTT [XGTACX_site2615] | 8.52 ± 0.45
TTTTTTCTCTATATATGTACATATAAAAAATATATC [XGTACX_site6382] | 8.45 ± 0.5
GTTACACAAACAAACACACACACACGCACGCACAAA [CACACA_site7191] | 10 ± 0.2
TTCTTTATTTTTTCTACACACATTAGATATTCAAAG [CACACA_site7624] | 8.98 ± 0.4
CAAAATTAATAAGTCACACACACATCTATAATATAT [CACACA_site6519] | 9.72 ± 0.21
ACCATAACATGAATTACAGGAATTGAAAATGTTCCA [CACACA_negctrl_site649] | 8.68 ± 0.52
TATATATATATATTCACACATAAGATGAATAAAGTG [CACACA_site4225] | 8.96 ± 0.29
GTATTATATATAAAAGTGCATATTTTTTTCCCTTAC | 8.68 ± 0.5
GGTTACATTTTATTTTGTACATAAAAATTTTTATTT [XGTACX_site218] | 8.78 ± 0.46
TGTTTATAAATATAAAAAAATATATATATATATTAT [GTGCAC_negctrl_site247] | 8.4 ± 0.41
ATTTTATAATTTATATCACACACATATATATATAGT [CACACA_site7885] | 9.28 ± 0.4
TGTCCCCCTTTCTATGCACACTTTAAATTATTCAAA [CACACA_site4200] | 9.07 ± 0.22
AAAAAAAAAATACATACACACACACCCACCCATATA [CACACA_site9187] | 10.18 ± 0.021
ATTAATCCAAATGAATGTACTTAATAATGTAATTAT [XGTACX_site8946] | 8.62 ± 0.42
TTATATATAAATGAAAGTACAAAACAGGAAAGAATA [XGTACX_site1076] | 8.96 ± 0.47
AATGATATATTATAAACACACAAAGATGGATATATA [CACACA_site7349] | 8.95 ± 0.48
AATACACGCAAACACACACACACACCCACATATATA [CACACA_site638] | 10.3 ± 0.14
